Laboratory results: PubChem BioAssay AID2546 (National Center for Advancing Translational Sciences (NCATS), 2010)
Screen size: about 310,000 compounds; about 11,000 (3.5%) were called active. The shares of active, inactive and inconclusive entries below differ from those in the screen. The call rests on the fitted dose curve; in most records, active means well fitted inhibition curve with a large enough effect; inconclusive means small, poorly fitted or top-dose-only effect, or effect the other way; inactive means flat fitted curve, though single readings scatter. No potency is given beside an inconclusive call; the fits are too rough.

Experiment: VP16 counterscreen qHTS for inhibitors of ROR gamma transcriptional activity;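 further: Gal4-VP16 expression switched on by copper sulfate through the metallothionein promoter; nearly all actives have a fitted effect of over 50% in size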
Conditions: Drosophila S2 Gal4-VP16 UAS-luciferase, luminescence, 20 h; series mostly up to 53.6 µM
Potency means the concentration at half of the fitted maximal effect; tags describe the fitted curve by direction and shape.

| SMILES | Potency |
| --- | --- |
| O=[N+]([O-])c1ccc(N/N=C/c2cn(Cc3ccc(F)cc3)c3ccccc23)nc1 | active: 6.31 µM |
| Cc1cc(C)cc(NC(=O)CCc2c(C)nn(-c3ccc(N4CCOCC4)nn3)c2C)c1 | inactive |
| CC1(c2ccc(Cl)cc2)NC(=O)N(CC(=O)NCc2ccc(F)cc2)C1=O (stereo not given) | inconclusive [inhibitor, single point] |
| CCN(CC)S(=O)(=O)c1cc([N+](=O)[O-])ccc1N=Nc1c(O)[nH]c2ccccc12 | inconclusive [inhibitor, single point] |
| O=[N+]([O-])c1ccc(N=Nc2ncc[nH]2)cc1 | active: 6.31 µM |
| Cn1c(SCc2nc3ccccc3[nH]2)nnc1-c1cccnc1 | inactive |
| N#C/C(=C/c1ccc(N2CCCCCC2)o1)c1ccc(Cl)cc1 | active: 7.08 µM |
| CC1=[N+](C)c2ccc3ccccc3c2C1(C)C | active: 2.51 µM |
| C/C(=N\NC(=O)Cc1cccc2ccccc12)c1ccncc1 | inconclusive [inhibitor, single point] |
| O=C(N/N=C/c1ccccc1F)c1cccc2ccccc12 | inconclusive [activator, partial curve] |
| OC(CNCc1cccnc1)COc1ccc2ccccc2c1 (stereo not given) | inactive |
| COc1ccc(N2CCN(C(=O)c3cccc(Br)c3)CC2)c([N+](=O)[O-])c1 | inactive |
| O=[N+]([O-])c1cc(/C=N/Nc2nc3ccccc3[nH]2)c(O)cc1O | active: 3.16 µM |
| O=C1OC2(O)C3C4C=CC(C4)C3C(=O)N2c2ccccc21 (stereo not given) | inactive |
| CN(C)S(=O)(=O)c1cccc(NC(=O)c2ccc(COc3ccccc3)cc2)c1 | active: 6.31 µM |
| O=C1N/C(=N/N=C/c2ccccc2)SC1(c1ccccc1)c1ccccc1 | inactive |
| CC(C)(C)n1nc2c(c1NC(=O)c1ccc([N+](=O)[O-])cc1)CS(=O)(=O)C2 | inconclusive [inhibitor, single point] |
| CC1CCCC(NC(=O)CSC2CCCCC2)C1C (stereo not given) | inconclusive [activator, partial curve] |
| COc1ccc2cc(-c3ccccc3)c(=O)oc2c1 | inconclusive [inhibitor, single point] |
| OCC1(CCCc2ccccc2)CCN(Cc2ccc(F)cc2)CC1 | inactive |
| CCCCNC(=O)C(CC)Sc1nc2sc(C(=O)OC)c(C)c2c(=O)n1N (stereo not given) | inactive |
| COc1ccccc1NC(=O)/C=C/C(N)=O | active: 4.47 µM |
| COc1cccc(/C=N/NC(=O)CNC(=O)COc2ccccc2)c1O | active: 1 µM |
| Cc1ccc2nc(Nc3nc(-c4ccccc4)cc(=O)[nH]3)nc(C)c2c1 | active: 12.6 µM |
| Cc1c(/C=N/NC(=O)c2cccnc2)c2ccccn2c1C(=O)c1ccc(F)cc1 | inactive |

| SMILES | Potency |
| --- | --- |
| O=c1cc(/C=C/c2c(F)cccc2Cl)[nH]c2ccccc12 | inconclusive [inhibitor, single point] |
| COc1ccc(C2=NOC(CNC(N)=S)C2)cc1 (stereo not given) | inconclusive [inhibitor, single point] |
| CN(C)c1ccc(/C=C2\SC(=O)N(CCc3nnc(N)s3)C2=O)cc1 | active: 4.47 µM |
| CC(=O)c1ccc(N2CCC(c3cc(-c4ccc(Cl)cc4Cl)n[nH]3)CC2)c([N+](=O)[O-])c1 | inconclusive [inhibitor, single point] |
| COc1cccc(NC(=S)NCc2cccs2)c1 | inconclusive [inhibitor, single point] |
| COc1ccc(C2C(C(=O)N3CCN(c4ccccc4)CC3)c3ccccc3C(=O)N2C)cc1OC (stereo not given) | inactive |
| COc1ccc(OC)c(/C=N/NC(=O)CCCC(=O)Nc2cccc(Br)c2)c1 | inactive |
| Cc1ccc(NC(=S)c2ccc3ccccc3n2)c(C)c1 | active: 7.94 µM |
| Cn1cccc1-c1cc(C(=O)N/N=C/c2ccccc2Cl)[nH]n1 | inconclusive [inhibitor, single point] |
| O=C(NNc1ncccc1-n1cccc1)c1ccc(Cl)cc1 | inconclusive [inhibitor, single point] |
| O=C(Nc1nc2ccccc2n1CCN1CCOCC1)c1ccccc1 | active: 3.55 µM |
| CC(=O)c1cccc(N(C(=O)c2csnn2)C(C(=O)NC2CCCC2)c2ccccc2)c1 (stereo not given) | inactive |
| Cc1ccc(NC(=O)C2CCN(S(=O)(=O)c3ccc4c(c3)NC(=O)C(C)S4)CC2)cc1Cl (stereo not given) | active: 7.08 µM |
| Cc1cc(N2CCOCC2)ccc1/C=C1\SC(=O)N(C(C)C)C1=O | inactive |
| COc1cc(C(=O)N2CCN(c3ccccc3OC)CC2)c([N+](=O)[O-])cc1OC | inactive |
| Cc1cccc2[nH]c3c(N4CC=C(c5ccc(F)cc5)CC4)ncnc3c12 | inconclusive [inhibitor, single point] |
| O=C(Nc1nnc(SCc2ccccc2)s1)c1cccc([N+](=O)[O-])c1 | inconclusive [inhibitor, single point] |
| Cc1ccc(F)cc1NC(=O)Cc1nn(C)c(=O)c2ccccc12 | inconclusive [inhibitor, single point] |
| CC(C)CN(C(=O)COC(=O)Cn1cnc2ccccc2c1=O)C1CCS(=O)(=O)C1 (stereo not given) | inconclusive [inhibitor, full curve, poor fit] |
| Cc1onc(-c2ccccc2)c1C(=O)NNC(=S)NC(=O)c1ccc(F)cc1 | active: 2 µM |
| COc1ccc(/C=C(/C#N)C(=O)Nc2cc(C)ccc2C)cc1C(=O)O | inconclusive [inhibitor, single point] |
| CN1CCN(c2ccccc2NC(=O)c2ccc([N+](=O)[O-])o2)CC1 | inconclusive [inhibitor, single point] |
| COc1ccc2c(ccc[n+]2CC(=O)c2ccccc2)c1 | inactive |
| CCOC(=O)Oc1ccc(/C=C2\N=C(C)OC2=O)cc1 | inactive |
| CC1CCN(CCNC(=O)c2ccc3c(=O)n(Cc4ccc(Cl)cc4)c(=S)[nH]c3c2)CC1 | inconclusive [inhibitor, single point] |
